Results reported in the supplement of paper PMC11417369.
± gives the standard deviation of the averaged measurements. Some of the results follow.

Each sequence was assayed on PfAP2-I AP2 domain 3 (GST-tagged) (assay: gcPBM binding intensity (ln(normalized median fluorescence intensity)); higher = stronger DNA binding).
Method in brief: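 Binding of GST-tagged P. falciparum DNA-binding domains, expressed in E. coli and used at about 25 μg on average, was carried out for 1 h in 1× PBS containing 1% milk, 0.2 mg/ml BSA, 0.5% salmon testes DNA and 0.03% Triton X-100. The target was an Agilent 4 × 180k array of primer-extended double-stranded 36-bp intergenic genomic probes plus negative controls, read with Alexa488 anti-GST antibody at 488 nm. Binding intensity is the highest Masliner-normalised natural-log median intensity across replicate spots of either probe orientation.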

| Sequence | gcPBM binding intensity (ln) |
| --- | --- |
| TACTTATTAGACTATTGTACATACATTATTAATATT [XGTACX_site7849] | 8.1 ± 0.52 |
| TAAAAAATTAAGCAACGTACAAATGAAAAGTATAAT [XGTACX_site1058] | 8.18 ± 0.66 |
| GAAAAACAAATATATTAACACACAAACATATAAACA [CACACA_site9315] | 7.92 ± 0.66 |
| ATAAAATCAACAAATCAGGATGTCACGTAAATATCA [CACACA_negctrl_site1009] | 7.79 ± 0.49 |
| AAATATTGTTTTTTATGTACTTATTTTTATTTATTT [XGTACX_site3481] | 7.86 ± 0.47 |
| ATGAAAAAGTGCTGGATTCTAAAGAAAAAAAAAAAA [CACACA_negctrl_site962] | 8.16 ± 0.75 |
| ATATTTTATATATTTGTGCACAATATTATAATATAT | 11.04 ± 0.049 |
| TTACATATATTGGGGTGTACATATATTTTCCTTCAC [XGTACX_site6224] | 8.32 ± 0.72 |
| AAAAAAAAAAAAAAAAGTACACATAATTGTATATGT [XGTACX_site6339] | 8.6 ± 0.41 |
| GTTATATGAACTTATATACACACCATTTTTGTAAAT [CACACA_site695] | 7.75 ± 0.63 |
| AAATCATATTCTTATTTTATTTTTTTTATTTTTTAT [XGTACX_negctrl_site166] | 7.47 ± 0.6 |
| TGTAGATATTTTTGGGGTACTTTATAAAGAACTAGT [XGTACX_site5635] | 8.19 ± 0.15 |
| TCAACTTGATTTATATGTACACATATAAGTAATTAT [XGTACX_site1798] | 7.79 ± 0.49 |
| ACGTTAGGCTTATTTGCACACTTGTATTAAAATTTT [CACACA_site4854] | 9.83 ± 0.014 |
| AAAAATATGCTTCCATGTACTTAAAAAAAAAATTTA [XGTACX_site3617] | 7.58 ± 0.37 |
| TATACAAACTATGATGCACACATATATATATGTATA [CACACA_site8327] | 8.9 ± 0.092 |
| AAAAAAAATTTTCTTCTGTTGTATTTTTTATACGTT [GTGCAC_negctrl_site477] | 7.49 ± 0.77 |
| AAAAAAAAGAAAAAAACACACAATGGAAAAAATGTA [CACACA_site3675] | 7.49 ± 0.76 |
| TATTTAGAAATAAATACACACATACATTTTTGTATA [CACACA_site4557] | 7.44 ± 0.31 |
| GTTTATTTTTTCATTTGTACACATAAATAAATATAT [XGTACX_site7752] | 8.23 ± 0.42 |
| TTAATTATATTATGCACACACAATTGGAAAAAAAAT [CACACA_site1958] | 9.65 ± 0.26 |
| GGTATATATTCTATCACACATATTTCCATGAAAATA [CACACA_site4728] | 8.06 ± 0.44 |

| Sequence | gcPBM binding intensity (ln) |
| --- | --- |
| ATAGATATAACATATGCATGTAAAATATAACCACTC [TGCATGCA_site60] | 8.1 ± 0.61 |
| TATTTTGTATTCATTTGTCACATATAATAGATAGGA [TGCATGCA_negctrl_site9] | 7.93 ± 0.61 |
| AATATATGTATATCCACACACATATATATATATATA [CACACA_site1633] | 9.22 ± 0.52 |
| TGTGCGGAAATAAGTGCACACATAGATATATGTATT [CACACA_site9227] | 10.7 ± 0.5 |
| TTATACGAAGTACGTACACACACTTATATGTTACTA [CACACA_site4019] | 8.31 ± 0.26 |
| AATAAATAGAAAGAGGTGCTACATTATATTATTTAT | 8.73 ± 0.3 |
| TAATAAATGACAAATTAACACACATATATTATATAT [CACACA_site9294] | 7.57 ± 0.51 |
| CGCTCTCTTTAATATTGTACATATATATTATATATA [XGTACX_site7017] | 7.88 ± 0.59 |
| ATAAATCAAATGCACACACACAAAAAAAAAAAAAAA [CACACA_site6221] | 9.31 ± 0.16 |
| TACAAAAATATATAAACACACAAATATAATATATAT [CACACA_site2942] | 7.79 ± 0.57 |
| TATATATAATATTTTTCACACACCATTTCCTTAAAC [CACACA_site1341] | 8.06 ± 0.4 |
| TTTTTTTTTTTTTTTTGTACATAATAAATGTTCTTA [XGTACX_site6754] | 8.16 ± 0.57 |
| TGTATCTATAATAAAACACACATTTTTAATGTGCTC [CACACA_site6788] | 7.42 ± 0.49 |
| GGATAATCATACGAAGCATGCTGAATTTCCAAATAA [TGCATGCA_site1013] | 7.49 ± 0.79 |
| AAAAAAATTAAATGGGGTACAATAAGGGTCAAATAT [XGTACX_site8669] | 8.44 ± 0.66 |
| AAAAAAAAAAATGGCTGTACATAATATTTAAATAGG [XGTACX_site4286] | 8.02 ± 0.43 |
| TTTTATTATATATATTGTACATATATTTTTATTTTT [XGTACX_site1564] | 7.7 ± 0.59 |
| ATATTTATAACTTGGTGTACTTTGAAAAAAAAAAAA [XGTACX_site5194] | 8.25 ± 0.83 |
| AAAAAAAAAAAAAACACACATACATACATACATATA [CACACA_site4121] | 8.2 ± 0.58 |
| TTATATTAGCCGATGGTGCATATATTTATAGGAAAA [GTGCAC_site9518] | 10.8 ± 0.54 |
| ATAATTTTTTAGATCACACATATAAATAAATAAATA [CACACA_site5175] | 7.73 ± 0.52 |
| TTAGATAGATTTGTACGTACTTATTATAACGTATCA [XGTACX_site5067] | 7.845 ± 0.035 |

| Sequence | gcPBM binding intensity (ln) |
| --- | --- |
| AATTTATAAATAATTAATTTGATAAATTATAAAGGG [GTGCAC_negctrl_site544] | 7.88 ± 0.43 |
| ACATATTTATATGTCTGTACAAATATGCAATTTTTT [XGTACX_site5516] | 7.57 ± 0.5 |
| TTTATGGATGTGTATGCATGCCTAAATAAATATATG [TGCATGCA_site916] | 7.88 ± 0.52 |
| ACGACATATGGATGATGTACTATCTTTATTATACAT [XGTACX_site6857] | 7.53 ± 0.63 |
| TAAATAATGTAAAAAACATCATCAAAATGTTAATTA [CACACA_negctrl_site1768] | 7.23 ± 0.17 |
| TCTCAAAAAAAAAAAAAAAAAAAAAAATTAAAAAAT [CACACA_negctrl_site1120] | 7.27 ± 0.67 |
| ATAAAGGTTTTCCAAGCATGCCACATAGTGACATAC [TGCATGCA_site193] | 7.59 ± 0.71 |
| CAATATAAAATAAAATGTACTTGTAGTAAAGGGATA [XGTACX_site1452] | 7.93 ± 0.61 |
| GATGAGGACAAACACACACACATAAGTTGATACATA [CACACA_site3424] | 8.15 ± 0.33 |
| AGATAGATACATACACGTACATATATATATACACAT [XGTACX_site4755] | 8.04 ± 0.47 |
| AAGGTTATATAAAAAAGTACGCATAAGATGTTGTTC [XGTACX_site807] | 8.09 ± 0.46 |
| TACTGTATTATAATTATGATTGACGAAATTAAAAAT [GTGCAC_negctrl_site358] | 7.83 ± 0.45 |
| TGAAATTTATAATAGTGTACAAAGAAAAAAAAAAAA [XGTACX_site4965] | 8.14 ± 0.89 |
| ATTAGAAAAAAGATAGCACACACGGCCCAATATATA [CACACA_site2417] | 8.04 ± 0.49 |
| AAAATAACATAAAAGAGTACTAAACCAAGATCAAAT [XGTACX_site7973] | 7.99 ± 0.96 |
| TATATTTATATTCTTACATTTTTTATGTTTTTTTTT [CACACA_negctrl_site1017] | 7.32 ± 0.4 |
| TAAACAGACATATAAACACACATATAAACCGACATA [CACACA_site2478] | 7.73 ± 0.47 |
| GTCATATTATTCTTTTCACACACGCGTTAATAATAA [CACACA_site9302] | 9.02 ± 0.52 |
| TATTATAATATGTAGCGTACATTTTTTCTTTCTTTT [XGTACX_site7831] | 7.61 ± 0.59 |
| TATAAATATATATATACACACACATACACAAAAAAA [CACACA_site9191] | 8.13 ± 0.4 |
| ATATATTATATGTACACACACATATAAGGGATTATA [CACACA_site5] | 8.03 ± 0.13 |
| AAAAATATGAAGACACAATATAGAAATAAAAATATA [XGTACX_negctrl_site244] | 7.41 ± 0.65 |

| Sequence | gcPBM binding intensity (ln) |
| --- | --- |
| TATTACTTGATATATACACACATATAACATAAATGC [CACACA_site7783] | 7.68 ± 0.49 |
| ATACCTAAAAAATATACACACATATTTATAAATATA [CACACA_site7260] | 7.8 ± 0.48 |
| TAGAATAAACCAAGAAGTACTGTTTAATGAAAAGTA [XGTACX_site5712] | 7.79 ± 0.64 |
| TATAAAAATAATATTACACACATGTAAAATGCCCGT [CACACA_site7522] | 7.96 ± 0.79 |
| TGAAAATAATTATAGGTGCATAAACATACGGATCTT | 10.8 ± 0.27 |
| TTTTTTTTGTATTTTTCACACACTCTCTATCTCTCT [CACACA_site8655] | 8.12 ± 0.35 |
| ATATATTAATAATAAATTAAAAGGAGTAACATTTTC [CACACA_negctrl_site320] | 7.62 ± 0.59 |
| TTTTTTTTTTTCTTTGCACACAGATAACTTGAAATT [CACACA_site2184] | 9.26 ± 0.43 |
| AATTTAATTATGGTAACACACAATAAAAAAAAATCT [CACACA_site568] | 7.74 ± 0.75 |
| ATATTTTATTTTCCATGTACACAAAAAAAAAAAAAA [XGTACX_site8327] | 8.26 ± 0.39 |
| AAGAAAATAAAGGATATGAAAAATAAAAAAAAGGAG [TGCATGCA_negctrl_site265] | 8.68 ± 0.085 |
| AGGTTAAAAATAAATACACACATTTTATGGGTGTAT [CACACA_site4702] | 7.45 ± 0.61 |
| ATATTATTAATATATTGTACTTTTTTTTTTTTATTT [XGTACX_site496] | 7.92 ± 0.042 |
| ATATGTATTTAATTCACACAAAAATATGTTCATGAA [CACACA_site5223] | 7.7 ± 0.52 |
| CACATTATGTATCATACACACAAATAAATATATAAT [CACACA_site4505] | 7.75 ± 0.42 |
| CCTTTATATTATAAAAGTACATAATATTTTATAAGT [XGTACX_site1629] | 7.79 ± 0.2 |
| AGCTCTATATTTTACACATGCGATTTGGATATATAT [TGCATGCA_site105] | 7.78 ± 0.61 |
| TAAATATATATCATCACACACACATACATAAATATA [CACACA_site183] | 7.72 ± 0.47 |
| ATATTACAACGTAACGAATATTTCATAAATTCTTAA [CACACA_negctrl_site770] | 7.38 ± 0.71 |
| TTATATAGATGGAATAGTACAGTATATATATATATA [XGTACX_site8755] | 9.2 ± 0.69 |
| ATTTCTCAATCGTAATGTACAAAAAAAAGGAAAAAA [XGTACX_site1193] | 7.78 ± 0.49 |
| GGTATAAAGAAATTTTGTACATATTTCTCCCTTTAA [XGTACX_site1874] | 7.77 ± 0.62 |
